From PubChem BioAssay AID488969 (Vanderbilt High Throughput Screening Facility, 2010)
Whole data set: some 110,000 compounds, median “z-score” near -0.1, cut for the highest 2% near 2. Some of the results follow. Activity calls are given as the source filed them.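 Rule for the calls: active = z-score in the third read window above 3 or below -3; inactive = the rest.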

biological target: Metabotropic glutamate receptor 8 (Rattus norvegicus) (UniProt P70579); test: mGluR8 Gi/Go-coupled signaling modulation – cell-based, rat, thallium flux, HTS, primary screen (AID 488969); conditions: HEK293 rat mGluR8, GIRK (G protein-gated inwardly rectifying potassium channel) thallium flux, FluoZin2; at 10 µM; stronger effect = higher value; submaximal glutamate (EC20) added with thallium
UniProt P70579, sequence (P70579 whole entry, looked up): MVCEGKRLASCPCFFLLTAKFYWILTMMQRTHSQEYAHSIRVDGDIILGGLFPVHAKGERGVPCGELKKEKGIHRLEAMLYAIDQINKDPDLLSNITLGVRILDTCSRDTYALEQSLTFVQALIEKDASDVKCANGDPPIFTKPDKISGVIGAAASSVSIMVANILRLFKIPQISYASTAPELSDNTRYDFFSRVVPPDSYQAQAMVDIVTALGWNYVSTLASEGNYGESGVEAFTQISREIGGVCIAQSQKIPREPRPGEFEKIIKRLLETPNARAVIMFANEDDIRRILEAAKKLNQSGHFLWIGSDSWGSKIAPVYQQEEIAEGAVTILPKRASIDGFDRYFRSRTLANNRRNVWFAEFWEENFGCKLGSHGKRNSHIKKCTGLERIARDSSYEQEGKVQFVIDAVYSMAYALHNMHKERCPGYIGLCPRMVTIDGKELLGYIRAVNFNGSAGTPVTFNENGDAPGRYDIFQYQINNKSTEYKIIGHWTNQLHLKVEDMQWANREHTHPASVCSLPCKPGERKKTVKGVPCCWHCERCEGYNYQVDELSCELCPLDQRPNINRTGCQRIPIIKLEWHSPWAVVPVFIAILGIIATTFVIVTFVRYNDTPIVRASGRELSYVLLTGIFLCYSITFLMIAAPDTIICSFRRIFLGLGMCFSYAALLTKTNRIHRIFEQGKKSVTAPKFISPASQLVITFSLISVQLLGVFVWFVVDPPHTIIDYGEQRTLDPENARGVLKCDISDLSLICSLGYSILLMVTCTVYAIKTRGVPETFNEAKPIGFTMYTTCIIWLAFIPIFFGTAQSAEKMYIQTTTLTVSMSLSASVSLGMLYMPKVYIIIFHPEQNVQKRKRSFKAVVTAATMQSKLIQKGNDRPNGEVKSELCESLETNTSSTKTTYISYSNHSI

| Structure (SMILES) | z-score |
| --- | --- |
| COC(CNC(=O)C1CC(=O)N(CCc2ccccc2)C1)OC (stereo not drawn) | 0.00594 |
| CCCC(=O)Nc1nnc(-c2cccc(OCC)c2)s1 | 0.633 |
| CC(Cc1ccccc1)N/C=C1\CC(=O)NC1=O (stereo not drawn) | 0.465 |
| CCCCOc1ccc(/C=C/C(=O)NCCc2nc3ccccc3[nH]2)cc1 | -0.161 |
| N#C/C(=C\c1ccc(Oc2ccc(C(F)(F)F)cc2[N+](=O)[O-])cc1)c1nc2ccccc2[nH]1 | 0.0845 |
| Cc1cc(OCC(=O)N(C)C)c2c(-c3ccccc3)cc(=O)oc2c1 | -0.759 |
| Nc1ncnc(Nc2ccccc2C(F)(F)F)n1 | -0.11 |
| CC(=O)N(CC1CCCO1)c1nnc(-c2cnccn2)s1 (stereo not drawn) | -0.354 |
| CCn1c(SCC(=O)c2ccc(Cl)cc2)nnc1-c1ccoc1C | -0.648 |
| COc1cc(NC(=O)c2cc(C(C)C)on2)cc(OC)c1OC | -0.744 |
| O=C1c2cccnc2Oc2ccc(Cl)cc2N1Cc1ccc(F)cc1 | -0.261 |
| CCCNC(=O)C1CNc2ccccc2O1 (stereo not drawn) | -0.2 |
| Cc1ccc(N(C(=O)Cn2nnc(-c3cccs3)n2)C(C(=O)NC2CCCC2)c2ccncc2)cc1 (stereo not drawn) | -0.291 |
| COCCN(C(=O)c1ccco1)C(C(=O)NC1CCCC1)c1cccs1 (stereo not drawn) | 0.0705 |
| COc1ccc(C(=O)/C=C/c2ccccc2C(F)(F)F)cc1 | -0.168 |
| CCOC(=O)C(=O)C1=C(N2CCOCC2)/C(=C\c2ccc(F)cc2)CC1 | 0.475 |
| CCc1ccc(OCC(=O)N/N=C/c2ccc(OS(=O)(=O)c3ccc(C)cc3)c(OC)c2)cc1 | -0.212 |
| COc1cc(OC)cc(C(=O)Nc2ccc(-c3nc4ccccc4o3)c(O)c2)c1 | 0.108 |
| CCCCNS(=O)(=O)c1ccc2c(c1)oc(=O)n2CC(=O)OCC | 0.0209 |
| Cc1ccc(C(=O)OC/C(O)=C(\C#N)c2nc3ccccc3[nH]2)cc1S(=O)(=O)N1CCOCC1 | -0.0249 |
| COc1ccc(C2C(C(=O)Nc3cccc(C)n3)c3ccccc3C(=O)N2C)cc1 (stereo not drawn) | -0.223 |
| COC(=O)C1(C)NC(c2ccco2)C2C(=O)N(c3ccc(C)cc3)C(=O)C21 (stereo not drawn) | 0.163 |

| Structure (SMILES) | z-score |
| --- | --- |
| CS(=O)(=O)N(CC(=O)Nc1ccc2c(c1)OCCO2)Cc1ccc(Cl)cc1 | 0.312 |
| O=C(c1ccccc1)N1CCN(C(=O)c2ccc([N+](=O)[O-])cc2)CC1 | -0.0358 |
| COc1ccccc1C(=O)Nc1nc(N)n(-c2ccccc2)n1 | -0.666 |
| COc1ccccc1Oc1ccc(S(=O)(=O)NCc2ccccn2)cc1 | 0.0652 |
| O=C(NCc1ccccn1)C1CCN(Cc2cnn(-c3ccccc3)c2-n2cccc2)CC1 | -0.0285 |
| O=C(Nc1c(Cl)ccc2nsnc12)c1cccnc1 | -0.111 |
| CC(=O)c1oc2ccccc2c1NC(=O)CCCN1C(=O)c2ccccc2C1=O | 0.31 |
| CC1CCC(N2CCN(c3ncccn3)CC2)CC1 (stereo not drawn) | -0.212 |
| O=C(CSc1nccn1-c1ccccc1)c1ccc(Cl)cc1 | -0.149 |
| COc1ccc(Br)cc1C(=O)Nc1nnn(C)n1 | 0.411 |
| CCc1cc2cc(C)c(C)cc2nc1SCC(=O)NNC(=O)c1ccco1 | 0.26 |
| Cc1ccc(C(=O)OCC(=O)c2c(N)n(C)c(=O)n(C)c2=O)cc1S(=O)(=O)N1CCCCC1 | -0.447 |
| O=C1c2ccccc2S(=O)(=O)c2cc(C(=O)N(c3ccccn3)c3ccccn3)ccc21 | -0.991 |
| Cc1ccc(S(=O)(=O)NCCC(=O)Nc2ccc(Cl)c(Cl)c2)cc1C | -0.0519 |
| CC1C(=O)Nc2ccccc2N1C(=O)C1CC1 (stereo not drawn) | -0.0821 |
| CSc1nc(C)c2c(c1C#N)CCCC2 | 0.402 |
| C=CCN(C(=O)CNC(=O)c1ccco1)C(C(=O)NC1CCCCC1)c1ccccc1F (stereo not drawn) | -0.119 |
| COc1ccc([C@H]2[C@H](C(=O)C(C)(C)C)N3N=Cc4ccccc4C3C23C(=O)OC(C)(C)OC3=O)cc1 (stereo partly drawn) | 0.18 |
| COc1ccc2c(C(=O)CN3CCN(c4ccccc4)CC3)c[nH]c2c1 | 0.0118 |
| CCOC(=O)c1ccc(N2C(=O)CC(N3CCC(O)(c4ccc(Cl)cc4)CC3)C2=O)cc1 (stereo not drawn) | 0.433 |
| COCC(C)OC(=O)c1c(N)n(CC(C)C)c2nc3ccccc3nc12 (stereo not drawn) | active: -3.75 |
| Cc1nnc(Sc2c(-c3ccccc3)c3ccc(Cl)cc3[nH]c2=O)s1 | -0.273 |

| Structure (SMILES) | z-score |
| --- | --- |
| CC1CCC(NC(=O)Nc2cccs2)CC1 (stereo not drawn) | 0.643 |
| CC1CCN(C(=O)Nc2ccc3nsnc3c2)CC1 | -0.183 |
| Cc1nc(NNC(=O)c2ccc([N+](=O)[O-])cc2)cc(-c2ccccc2)n1 | -0.171 |
| CCOCCCNC(=O)C1CCN(S(=O)(=O)N2CC(C)CC(C)C2)CC1 (stereo not drawn) | -0.22 |
| Cc1nn(C)c(C)c1CNC(=O)c1cc2n(n1)C(C(F)(F)F)CC(c1cccs1)N2 (stereo not drawn) | -0.345 |
| COc1ccc2c(C=O)c[nH]c2c1 | -0.452 |
| O=C(O)C1CCN(c2ncccn2)CC1 | -0.024 |
| CCn1cnc2c(cnn2-c2ccccc2)c1=O | -0.902 |
| N#C/C(=C\c1cn(CCOc2ccccc2)c2ccccc12)C(=O)NCc1ccco1 | -0.0113 |
| CCOC(=O)Cc1csc(N/C(=N/S(=O)(=O)c2ccc(F)cc2F)c2ccccc2)n1 | 0.0927 |
| COc1ccc(C(CNC(=O)CN2C(=O)NC3(CC(C)CC(C)(C)C3)C2=O)N2CCOCC2)cc1 (stereo not drawn) | -0.081 |
| CSc1nc2ccc(S(=O)(=O)N3CCCC3)cc2s1 | -0.112 |
| CCC(=O)N1CCN(c2ccccc2NC(=O)c2ccc(-c3cccc([N+](=O)[O-])c3)o2)CC1 | 0.059 |
| Cc1cccc(OCC(=O)N/N=C\c2cc3c(cc2[N+](=O)[O-])OCO3)c1C | -0.147 |
| CC(=O)CC1(C)OC(N)=C(C#N)C1(C#N)C#N (stereo not drawn) | -0.0692 |
| Cc1cc(C)cc(N(CC(=O)NCC2CCCO2)C(=O)CCC(=O)Nc2cc(C)on2)c1 (stereo not drawn) | -0.639 |
| Cc1cc(NC(=O)Cn2c(C)nc3ccccc3c2=O)ccc1Br | -0.0994 |
| COc1ccccc1N1CCN(C(=O)C2CCN(S(=O)(=O)N3CCOCC3)CC2)CC1 | 0.126 |
| O=C(CCC1CC(=O)Nc2ccccc21)NCc1ccccc1 (stereo not drawn) | 0.23 |
| CCC(CC)C(=O)Nc1nnc(SCC(=O)N2CCN(c3ccccc3OC)CC2)s1 | -0.609 |
| Nc1cccc(-c2nc3cc(S(=O)(=O)c4ccc5oc(-c6cccc(N)c6)nc5c4)ccc3o2)c1 | 0.0642 |
| COc1ccc(S(=O)(=O)N(CC(=O)N2CCN(c3ccccc3)CC2)c2ccccc2)cc1 | 2.25 |

| Structure (SMILES) | z-score |
| --- | --- |
| Cc1cccc(Nc2nc(N)nc(CSc3nccn3C)n2)c1 | -0.137 |
| c1ccc(-c2noc(-c3cccs3)n2)nc1 | -0.107 |
| Cc1cc(Cl)ccc1OCC(=O)N1C(C)CCCC1C (stereo not drawn) | -0.44 |
| COc1ccc(CNC(=O)CSCc2cnn(-c3ccccc3)c2-n2cccc2)cc1 | 0.0302 |
| Cn1nnnc1P(=O)(c1ccccc1)c1ccccc1 | 0.198 |
| CCOC(=O)c1c(N)nn(C(=O)C(C)C)c1-c1ccccc1 | -0.103 |
| O=C(NCc1cccnc1)c1cnn2ccccc12 | 0.158 |
| COCCNC(=O)CN(Cc1ccc(Cl)cc1)S(C)(=O)=O | -0.0327 |
| COc1ccc(OC)c(Nc2ccc(Nc3cc(OC)ccc3OC)nn2)c1 | -0.125 |
| COc1ccc(C(=O)Nc2ccccc2C(=O)NC(C(=O)NCc2ccco2)C(C)C)cc1 (stereo not drawn) | -0.474 |
| O=c1c2ccccc2nc(-c2ccccc2)n1CCN1CCOCC1 | -0.677 |
| Cc1ccc(-c2cc(C(F)F)nc(N3CCC(C)CC3)n2)cc1 | -0.269 |
| Fc1ccc(CO/N=C/C2=C(Cl)c3ccccc3CC2)cc1 | 1.72 |
| COc1ccc(Br)cc1S(=O)(=O)N1CCOCC1 | -0.1 |
| O=C(NCCCn1ccnc1)Nc1cccc2ccccc12 | 1.54 |
| Cc1ccc(OCc2nnc(SCC(=O)Nc3nccs3)n2-c2ccccc2)cc1C | -0.17 |
| Cn1cc(-c2nnnn2-c2ccc(Cl)cc2)c(=O)c2ccccc21 | -0.238 |
| CCOC(=O)C1=C(C)NC2(O)c3ccccc3C(=O)C12O (stereo not drawn) | 0.868 |
| Cc1ccc(-c2ccc(CCC(=O)O)n2C(C)C)cc1 | -0.00219 |
| CC(=O)c1ccccc1NC(=O)COC(=O)c1ccccc1NC(=O)c1ccccc1 | 0.161 |
| Cc1ccc(-c2[nH]nc3c2C(c2ccc(OC(=O)N4CCOCC4)cc2)C(C#N)=C(N)O3)cc1 (stereo not drawn) | -0.378 |
| Cc1ccc(/C=N/NC(=O)CSc2nc3ccccc3c(=O)n2-c2ccccc2)s1 | -0.182 |

| Structure (SMILES) | z-score |
| --- | --- |
| O=c1c2cn[nH]c2nc(SCc2ccc3c(c2)OCCO3)n1-c1ccccc1 | -0.345 |
| COc1cc(C2NC(=O)NC(c3ccccc3)=C2C(C)=O)ccc1OCC(=O)O (stereo not drawn) | 0.117 |
| Clc1ccc(OCCN2CCOCC2)cc1Cl | 0.403 |
| O=C(/C=C/c1ccc(Br)o1)OCc1ccccc1 | 1.52 |
| CCCNS(=O)(=O)c1ccc(CCC(=O)N2CCCCC2)cc1 | -0.193 |
| CCOC(=O)c1sc2nc3c(cc2c1N)COC(C(C)C)C3 (stereo not drawn) | -0.804 |
| c1ccc2c(-c3nnc4n3CCCCC4)cc(-c3ccncc3)nc2c1 | 0.284 |
| Cc1ccc(CNC(=O)C2c3ccccc3C(=O)N(C)C2c2c[nH]c3ccccc23)o1 (stereo not drawn) | -0.464 |
| Cc1ccc(S(=O)(=O)N2CCCC(C(=O)Nc3cccnc3)C2)cc1 (stereo not drawn) | -0.0543 |
| O=C(Nc1ccc(N2CCOCC2)cc1)C1CC1 | 0.35 |
| COC(=O)c1ccc(NCCc2csc(-c3ccc(C)cc3)n2)c([N+](=O)[O-])c1 | -0.401 |
| COc1ccc(NC(C)=O)cc1NC(C)C(=O)Nc1ccc(F)c(F)c1F (stereo not drawn) | -1.29 |
| S=C(NCc1ccccn1)Nc1ccc(Cl)cc1Cl | -0.0135 |
| COc1ccc(C(=O)N2CCc3cc(OC)c(OC)cc3C2c2cccc([N+](=O)[O-])c2)cc1OC (stereo not drawn) | -0.216 |
| CCOc1ccc(-n2c(SCC(=O)Nc3ccc4c(c3)OCO4)nc3ccccc3c2=O)cc1 | -0.538 |
| Cc1nc2sccn2c1-c1nc(-c2cc3ccccc3o2)cs1 | -0.563 |
| CCCc1nc2sc3c(=O)n(N)cnc3c2c2c1COC(C)(C)C2 | -0.29 |
| CCCc1nc2oc3c(OC)ncnc3c2c2c1COC(C)(C)C2 | -0.224 |
| O=C(Cc1ccc(Cl)cc1)Nc1ccc(N2CCN(C(=O)c3ccco3)CC2)c(Cl)c1 | 2.13 |
| Fc1ccccc1C(c1nnnn1C1CCCC1)N1CCN(Cc2ccccc2)CC1 (stereo not drawn) | 0.671 |
